# Reference: ChEMBL document CHEMBL4888484, “Replenishing the malaria drug discovery pipeline: Screening and hit evaluation of the MMV Hit Generation Library 1 (HGL1) against asexual blood stage Plasmodium falciparum ,using a nano luciferase reporter read-out” (2022)
# In all, about 150,000 compounds went through this assay and about 540 (0.36%) showed an effect of 50% or more. Some of the results follow.
# Tested on: Plasmodium falciparum
# Assay: Primary screen in NF54 nanoGlo assay, in single point, at 2uM, 72h; a lower Z score goes with more inhibition
# Format: functional, Erythrocyte
# Conditions: timepoint 72 hour
SMILES,% Inhibition [%],Z score
Clc1cccc(CN2CCC(n3cncn3)CC2)c1Cl,-9,1.23
Cc1noc(C)c1C(=O)N1CCC[C@H]1c1nn(C)c(=O)n1Cc1ccccc1,-7,0.98
C#CCCC1(CCC(=O)N2CCC(CN3CCc4ccccc43)CC2)N=N1,1,-0.2
Cn1ccc(NC(=O)CCS(=O)(=O)c2ccc3c(c2)CCC3)n1,-9,0.95
Cc1sc(C)c(CNCC(C)C)c1CNCC(C)C,10,-1.04
O=C(NC1CCCC1)C(F)(F)C(F)(F)C(=O)NC1CCCC1,0,0.05
C[C@H](CCC(=O)Nc1cccc2[nH]ccc12)[C@H]1CC[C@H]2[C@@H]3CC[C@@H]4C[C@H](O)CC[C@]4(C)[C@H]3C[C@H](O)[C@]12C,-10,1.2
CC(C)(C)c1cn2nc(N3C4CCC3CC(O)C4)sc2n1 (stereo not given),-5,0.62
Cc1nnc(N2CCN(C)C(=O)C2)c2ccccc12,-5,0.65
O[C@@H](CNc1ncnc2sccc12)c1ccc(Cl)c(F)c1,28,-3.21
O=C(NCCCN1CCCCC1)[C@@H]1CCN(c2ccc(Cl)cc2)C1=O,-10,1.02
CCCOc1ccc(CN[C@@H](C)CC)cc1Cl,-21,3.16
CC(=O)N1CCC(NS(=O)(=O)c2ccc3ccccc3c2)CC1,-6,1.15
Cc1cnccc1CN(C)c1nc(-c2cccnc2)nc2c1c(C)nn2C,-8,0.75
CCN(CC)c1onc(-c2ccccc2)c1CN(Cc1ccccc1)C(=O)c1cccc(Br)c1,-10,1.5
CCCNC(=O)[C@H](C)OC(=O)c1cc(OC)no1,-16,2.39
CC(C)C1CCN(C(=O)Nc2ccns2)CC1,-5,0.94
Cc1nn(C)c2c1N(CC1=CCCCC1)CCS2(=O)=O,1,-0.13
CCn1nccc1C(=O)N1CC[C@H]2C(=O)N(Cc3ccccc3)CCN2CC1,-14,1.88
O=C(c1cnccn1)N1CCc2sccc2[C@H]1c1ccccc1,-4,0.49
CC(C)c1cncnc1N[C@H]1CCOC[C@@H]1OCC1CC1,-5,0.83
O=C(c1cc2n(n1)CCN(Cc1nc3c(s1)CCCC3)C2)N1CCCC1,-2,0.23

SMILES,% Inhibition [%],Z score
CC(C)CN1CCC[C@H]1CNC1CCCCC1S(C)(=O)=O (stereo not given in full),-15,1.9
COC(=O)Cc1nc(C(C)C)nn1-c1ccc2c(c1)CCC2,-10,1.2
CC(=O)c1c(F)cccc1N1CCN2CCCC[C@H]2C1,34,-3.88
CC(C)(C)C1CCC(O)(CNC(=O)c2cscn2)CC1 (stereo not given),-7,0.71
Cc1ccc(CN[C@@H]2c3ccccc3CC23CCOCC3)nc1,-6,0.78
O=C(NCc1ccncc1)[C@H]1CCCN(c2ncnc3c2oc2ccccc23)C1,-13,1.55
CC(CO)C1CCN(C(=O)[C@@H]2CCCC[C@@H]2N2CCCC2=O)CC1 (stereo not given in full),-7,1.14
Cc1cc2sc(NC(=O)NC(C)(C)CO)nc2s1,-11,1.41
Cc1ccccc1S(=O)(=O)Nc1ccc(N2CCNCC2)c(C(=O)NC[C@H]2CCCO2)c1,3,-0.37
C[C@@H]1CN(C(=O)c2c[nH]nc2C(C)(C)C)CCN(C2CC2)C1,3,-0.54
CCS(=O)(=O)C[C@H](C)N(C)C(=O)c1cc(C)no1,-1,0.17
O=S(=O)(c1cccc(F)c1)N1CCC(OC2CCN(Cc3ccccc3)CC2)CC1,3,-0.33
Fc1ccc(N2Cc3ccccc3C2)nc1,17,-2.1
COc1ccc(-n2ncnc2CCn2ccccc2=O)cc1,1,-0.08
CC(C)(C(=O)O)c1cnc(NCc2n[nH]c3c2CCC3)nc1N1CCOCC1,-5,0.52
CCn1cnc2c1CCN(C(=O)Nc1cc(C3(C)CCCC3)on1)C2,-1,0.08
Cc1cc(C(=O)Nc2ccccc2N2CCCC2=O)c(C)n1Cc1ccco1,17,-3.2
COC[C@H]1CCCN(C(=O)c2ccc(OC3CCN(C)CC3)c(OC)c2)C1,-5,0.76
O=C(Cn1nnc2ccccc21)NC1CCCC1,-6,0.85
CCOc1ccc(Cn2c(CN3C(=O)c4ccccc4C3=O)nc3cccnc32)cc1,-4,0.68
N#Cc1ccsc1NC(=O)c1cccc(CN2CCS(=O)(=O)CC2)c1,-7,0.61
Cc1nc(C(=O)[C@H](C#N)C(=O)NC(C)C)cs1,7,-0.67

SMILES,% Inhibition [%],Z score
CO[C@H]1CCN(Cc2ccc(C3CCCCC3)s2)C1,-5,0.55
N#Cc1cccc([C@@H](C#CC2CCCCC2)N2CCN(CCO)CC2)c1,-5,0.8
COc1cccc(Cc2nc(-c3ccc(Oc4ccc(NC(C)=O)cc4)cc3)no2)c1,-17,1.95
CN(CCN(C)C1CC1)C(=O)c1scnc1C(F)(F)F,-4,0.45
Cc1nc(C)n(CCNC(=O)c2cnc(-c3cccnc3)nc2)n1,-10,0.95
Cc1ccn(CC(=O)N2CC[C@@]3(CCCN(CCCc4ccccc4)C3)C2)n1,-15,1.33
O=C(N[C@H]1CCOC[C@H]1C1CCOCC1)c1cccc(OC(F)F)c1,-3,0.41
CO[C@@]1(C)C[C@@H](O)C12CCN(c1ccc(Cl)c(C(=O)O)n1)CC2,-12,1.21
CCCC[C@H](CC)C(=O)Nc1ccc(OC)nc1,-7,1.24
O=C(CCCOc1ccccc1)Nc1nnn[nH]1,-4,0.64
Cc1noc2ncc(C(=O)N3CC(C)OC(C)C3)cc12 (stereo not given),-5,1.1
CC(C)C(=O)N(CCN1CCOCC1)Cc1cc(Cl)ccc1OCc1nc(CO)cs1,-7,1
Cc1ccc(CN(C[C@H](O)COCc2ccccc2)C2CC2)o1,-9,1.31
Cn1cc(-c2ccccc2)cc1C(=O)N1CCOCC1,7,-1.02
O=C(NCCc1cnn(-c2ccccc2)c1)c1cc2ncc(CCO)cn2n1,-11,1.92
OC[C@H]1CCCN(Cc2csc(-c3ccsc3)n2)[C@H]1CO,-14,2.42
Cc1cccc(NC(=O)N2CCN(c3ccc(NC(=O)CC(C)C)cc3C(=O)NCc3ccc(F)cc3)CC2)c1,-7,0.99
CCOc1ccc(N(C)S(=O)(=O)c2cc(-c3nc(-c4ccccc4)no3)sc2C)cc1,-1,0.09
Clc1ccc(-n2nnnc2C2(Nc3ccc4c(c3)OCCO4)CCCC2)cc1,0,0.03
CO[C@H]1CCN(c2cc(C(F)(F)F)ncn2)C1,-7,0.84
CCn1nc(CN2CCCN(C(=O)c3cnn(C)c3)CC2)c2c1CCOC2,-16,1.44
C[C@H](NCc1cc(C2CC2)ccc1F)c1ccc(F)cn1,-2,0.33

SMILES,% Inhibition [%],Z score
CN(C)C[C@H]1CN(C(=O)Nc2ccc(OC3CCC3)c(F)c2)CCO1,1,-0.16
O=C1C[C@H](C(=O)Nc2ccc3scnc3c2)C2(CCCC2)O1,-3,0.49
CCOC(=O)c1cc(C(F)(F)F)nc(C(F)(F)F)c1,7,-1.02
CC(=O)Nc1ccc(CN2CCC[C@H]2c2nc(-c3ccnc(NS(C)(=O)=O)c3)no2)cc1,14,-1.66
Cc1cc(Oc2ncccc2C#N)ccc1NC(=O)c1cc2ccc(F)cc2nc1C,-10,1.48
COc1cncc(C=CCCN2CCc3[nH]ncc3C2)c1,8,-1.46
COc1ccccc1C=CCN1CCS(=O)(=O)C(C)(C)C1,2,-0.13
Cc1ncc(CN(C)C(=O)Nc2cccnc2)s1,-9,0.84
CS(=O)(=O)NC1CCCC1CNc1ncc(F)cn1 (stereo not given),-21,2.65
O=C([C@@H]1Cc2cc(Cl)ccc2O1)N1CCN(c2ccccc2)CC1,-15,1.43
CN1CC[C@@]2(CCCN(C(=O)c3ccc4[nH]c(=O)n(C)c4c3)C2)C1,4,-0.59
CNC(=O)N1CCC([C@H]2CCN(S(=O)(=O)c3cccc(OC)c3)C2)CC1,-9,1.07
O=C(Cc1cccc2ccccc12)Nc1cc(-c2ccccn2)no1,-15,2.93
Cc1nc2cc(OCc3cc(C(=O)N[C@@H](C)c4cn(C)nc4C)no3)ccc2s1,8,-1.58
CS(=O)(=O)N1CCn2nc(CNC(=O)Cc3cccc(Cl)c3)cc2C1,0,0.01
CN(C)c1c(F)cc(NC(=O)NC2C3CCOC3C2(C)C)cc1F (stereo not given),7,-1.31
CCCCNC[C@H](O)Cn1c(=O)sc2ccccc21,-6,1.17
O=C(Cc1csc(-c2ccccc2)n1)N1CCN(C(=O)[C@@H]2CCCO2)CC1,-5,0.7
Cn1cccc1CN(C1CC1)S(=O)(=O)Cc1ccccc1Cl,-4,0.84
